{"source": "patent US9023789B2", "about": "“Amylin analogs and pharmaceutical compositions thereof” (Novo Nordisk A/S, priority 2012, dated 2015)", "note": "The name of at least one read-out is uncertain. Numbered stars: 1 amine (or outer) side, 2 acyl side, 3 side chain; on linkers, the order of the positions; unused ones are H or OH. Bridge positions count the residues as written; N and C are the ends. Side chains are listed from the residue outwards. Peptide text beside a SMILES is read from it. * marks the point of attachment. C20 diacid = O=C(O)CCCCCCCCCCCCCCCCCCC(=O)*; γGlu = O=C(O)[C@H](CCC(=O)[*:2])N[*:1]"}
{"assay": "ASSAY (III) ThT fibrillation assay for physical stability", "assay_type": "physicochemical", "method_in_brief": "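Formulations with 1 μM ThT, pH adjusted as required, incubated at 37 °C with 960 rpm orbital shaking; fluorescence (ex 444/em 485 nm) read every 20 min. Fibrillation reported as mean ThT fluorescence ± SD of 4–8 replicates at time points; polypeptide concentration measured by reverse-phase HPLC before and after, post-centrifugation.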", "units": {"ThT pH 4.0 recovery (%)": "%"}}
{"smiles": "CC[C@H](C)[C@H](NC(=O)[C@H](C)NC(=O)CNC(=O)[C@H](Cc1ccccc1)NC(=O)[C@H](CC(N)=O)NC(=O)[C@@H]1CCCN1C(=O)[C@H](CO)NC(=O)[C@H](CO)NC(=O)[C@H](Cc1c[nH]cn1)NC(=O)[C@H](CCCNC(=N)N)NC(=O)[C@H](CC(C)C)NC(=O)[C@H](Cc1ccccc1)NC(=O)[C@H](CCC(=O)O)NC(=O)[C@H](C)NC(=O)[C@H](CC(C)C)NC(=O)[C@H](CCCNC(=N)N)NC(=O)[C@H](CCC(N)=O)NC(=O)[C@@H](NC(=O)[C@H](C)NC(=O)[C@@H]1CSSC[C@H](NC(=O)[C@H](CCCCN)NC(=O)CC[C@H](NC(=O)CCCCCCCCCCCCCCCCCCC(=O)O)C(=O)O)C(=O)N[C@@H](CC(N)=O)C(=O)N[C@@H]([C@@H](C)O)C(=O)N[C@@H](C)C(=O)N[C@@H]([C@@H](C)O)C(=O)N1)[C@@H](C)O)C(=O)N1CCC[C@H]1C(=O)N[C@@H](CO)C(=O)N[C@@H](CO)C(=O)N[C@H](C(=O)N[C@@H](CC(N)=O)C(=O)N[C@H](C(=O)NCC(=O)N1CCC[C@H]1C(=O)N[C@@H](CC(N)=O)C(=O)N[C@H](C(=O)N[C@@H](Cc1ccc(O)cc1)C(N)=O)[C@@H](C)O)C(C)C)[C@@H](C)O", "note": "[Example 32] ({C20 diacid-γGlu}-KCNTATCATQRLAEFLRHSSPNFGAIPSSTNVGPNTY-NH2; disulfide 2-7)", "ThT pH 4.0 recovery (%)": 78}
{"smiles": "CC[C@H](C)[C@H](NC(=O)[C@H](C)NC(=O)CNC(=O)[C@H](Cc1ccccc1)NC(=O)[C@H](CC(N)=O)NC(=O)[C@@H]1CCCN1C(=O)[C@H](CO)NC(=O)[C@H](CO)NC(=O)[C@H](Cc1c[nH]cn1)NC(=O)[C@H](CCCNC(=N)N)NC(=O)[C@H](CC(C)C)NC(=O)[C@H](Cc1ccccc1)NC(=O)[C@H](CCC(=O)O)NC(=O)[C@H](C)NC(=O)[C@H](CC(C)C)NC(=O)[C@H](CCCNC(=N)N)NC(=O)[C@H](CCC(N)=O)NC(=O)[C@@H](NC(=O)[C@H](C)NC(=O)[C@@H]1CSSC[C@H](NC(=O)[C@H](CCCCN)NC(=O)CC[C@H](NC(=O)CCCCCCCCCCCCCCCCCCC(=O)O)C(=O)O)C(=O)N[C@@H](CC(N)=O)C(=O)N[C@@H]([C@@H](C)O)C(=O)N[C@@H](C)C(=O)N[C@@H]([C@@H](C)O)C(=O)N1)[C@@H](C)O)C(=O)N[C@@H](CC(C)C)C(=O)N1CCC[C@H]1C(=O)N[C@@H](CO)C(=O)N[C@H](C(=O)N[C@@H](CC(N)=O)C(=O)N[C@H](C(=O)NCC(=O)N[C@@H](CO)C(=O)N[C@@H](CCC(=O)O)C(=O)N[C@H](C(=O)N[C@@H](Cc1ccc(O)cc1)C(N)=O)[C@@H](C)O)C(C)C)[C@@H](C)O", "note": "[Example 33] ({C20 diacid-γGlu}-KCNTATCATQRLAEFLRHSSPNFGAILPSTNVGSETY-NH2; disulfide 2-7)", "ThT pH 4.0 recovery (%)": 0}
{"smiles": "CC[C@H](C)[C@H](NC(=O)[C@H](C)NC(=O)CNC(=O)[C@H](Cc1ccccc1)NC(=O)[C@H](CC(N)=O)NC(=O)[C@@H]1CCCN1C(=O)[C@H](CO)NC(=O)[C@H](CO)NC(=O)[C@H](Cc1c[nH]cn1)NC(=O)[C@H](CCCNC(=N)N)NC(=O)[C@H](CC(C)C)NC(=O)[C@H](Cc1ccccc1)NC(=O)[C@H](CC(N)=O)NC(=O)[C@H](C)NC(=O)[C@H](CC(C)C)NC(=O)[C@H](CCCNC(=N)N)NC(=O)[C@H](CCC(N)=O)NC(=O)[C@@H](NC(=O)[C@H](C)NC(=O)[C@@H]1CSSC[C@H](NC(=O)[C@H](CCCCN)NC(=O)CC[C@H](NC(=O)CCCCCCCCCCCCCCCCCCC(=O)O)C(=O)O)C(=O)N[C@@H](CC(N)=O)C(=O)N[C@@H]([C@@H](C)O)C(=O)N[C@@H](C)C(=O)N[C@@H]([C@@H](C)O)C(=O)N1)[C@@H](C)O)C(=O)N1CCC[C@H]1C(=O)N[C@@H](CO)C(=O)N[C@@H](CO)C(=O)N[C@H](C(=O)N[C@@H](CC(N)=O)C(=O)N[C@H](C(=O)NCC(=O)N[C@@H](CO)C(=O)N[C@@H](CCCCN)C(=O)N[C@H](C(=O)N[C@@H](Cc1ccc(O)cc1)C(N)=O)[C@@H](C)O)C(C)C)[C@@H](C)O", "note": "[Example 34]", "ThT pH 4.0 recovery (%)": 99}
{"smiles": "CC[C@H](C)[C@H](NC(=O)[C@H](C)NC(=O)CNC(=O)[C@H](Cc1ccccc1)NC(=O)[C@H](CC(N)=O)NC(=O)[C@@H]1CCCN1C(=O)[C@H](CO)NC(=O)[C@H](CO)NC(=O)[C@H](Cc1c[nH]cn1)NC(=O)[C@H](CCCNC(=N)N)NC(=O)[C@H](CC(C)C)NC(=O)[C@H](Cc1ccccc1)NC(=O)[C@H](CC(N)=O)NC(=O)[C@H](C)NC(=O)[C@H](CC(C)C)NC(=O)[C@H](CCCNC(=N)N)NC(=O)[C@H](CCC(N)=O)NC(=O)[C@@H](NC(=O)[C@H](C)NC(=O)[C@@H]1CSSC[C@H](NC(=O)[C@@H](N)CCCCNC(=O)CC[C@H](NC(=O)CCCCCCCCCCCCCCCCCCC(=O)O)C(=O)O)C(=O)N[C@@H](CC(N)=O)C(=O)N[C@@H]([C@@H](C)O)C(=O)N[C@@H](C)C(=O)N[C@@H]([C@@H](C)O)C(=O)N1)[C@@H](C)O)C(=O)N1CCC[C@H]1C(=O)N[C@@H](CO)C(=O)N[C@@H](CO)C(=O)N[C@H](C(=O)N[C@@H](CC(N)=O)C(=O)N[C@H](C(=O)NCC(=O)N[C@@H](CO)C(=O)N[C@@H](CCCCN)C(=O)N[C@H](C(=O)N[C@@H](Cc1ccc(O)cc1)C(N)=O)[C@@H](C)O)C(C)C)[C@@H](C)O", "note": "[Example 35] (H-K([γGlu-C20 diacid])CNTATCATQRLANFLRHSSPNFGAIPSSTNVGSKTY-NH2; disulfide 2-7; N-terminus assumed)", "ThT pH 4.0 recovery (%)": 100}
{"smiles": "CC[C@H](C)[C@H](NC(=O)[C@H](C)NC(=O)CNC(=O)[C@H](Cc1ccccc1)NC(=O)[C@H](CC(N)=O)NC(=O)[C@@H]1CCCN1C(=O)[C@H](CO)NC(=O)[C@H](CO)NC(=O)[C@H](Cc1c[nH]cn1)NC(=O)[C@H](CCCNC(=N)N)NC(=O)[C@H](CC(C)C)NC(=O)[C@H](Cc1ccccc1)NC(=O)[C@H](CCC(=O)O)NC(=O)[C@H](C)NC(=O)[C@H](CC(C)C)NC(=O)[C@H](CCCNC(=N)N)NC(=O)[C@H](CCC(N)=O)NC(=O)[C@@H](NC(=O)[C@H](C)NC(=O)[C@@H]1CSSC[C@H](NC(=O)[C@H](CCCCN)NC(=O)CC[C@H](NC(=O)CCCCCCCCCCCCCCCCCCC(=O)O)C(=O)O)C(=O)N[C@@H](CC(N)=O)C(=O)N[C@@H]([C@@H](C)O)C(=O)N[C@@H](C)C(=O)N[C@@H]([C@@H](C)O)C(=O)N1)[C@@H](C)O)C(=O)N1CCC[C@H]1C(=O)N[C@@H](CO)C(=O)N[C@@H](CO)C(=O)N[C@H](C(=O)N[C@@H](CC(N)=O)C(=O)N[C@H](C(=O)NCC(=O)N[C@@H](CCCCN)C(=O)N[C@@H](CC(N)=O)C(=O)N[C@H](C(=O)N[C@@H](Cc1ccc(O)cc1)C(N)=O)[C@@H](C)O)C(C)C)[C@@H](C)O", "note": "[Example 36] ({C20 diacid-γGlu}-KCNTATCATQRLAEFLRHSSPNFGAIPSSTNVGKNTY-NH2; disulfide 2-7 (inferred))", "ThT pH 4.0 recovery (%)": 100}
